For 37 sequences, binding signal (log2 fold change) results are on record in publication PMC5892938.

Some of the results follow. At the low end of the ranking the order means little.

The assay concerns the target GST-SBP-SLBP (stem-loop binding protein) (UniProt Q14493). Description: targeted RNA Bind-n-Seq.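 Note: DESeq read counts versus GST-SBP nonspecific binding control pulldown.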 As to conditions: RBNS binding buffer: 25 mM Tris pH 7.5, 150 mM KCl, 3 mM MgCl2, 0.1% Tween, 0.5 mg/mL BSA, 1 mM DTT; 27 nM protein, 750 pM RNA pool; temperature not stated; high values mean tight binding.
As for “GGUCACGUCUCAAUCAACUCUUCUCCCAGGGAAACCCCUGGUUUAUUCAACAGCUCGCAGUCAAG”, the binding signal (log2 fold change) is -0.299.
As for “GGUCACGUCUCAAUCAACUCUUUCGCAGGAGUUUCCUCCUGGUUUUUCAACAGCUCGCAGUCAAG”, the figure is 0.0475; as for “GGUCACGUCUCAAUCAACUCUUUCUCAGGAGUUUCCUCCUGUAAUCUCAACAGCUCGCAGUCAAG”, 0.00473; as for “GGUCACGUCUCAAUCAACUCUAUCCCCAGGGAAAACCCUGGUAUACUCAACAGCUCGCAGUCAAG”, 0.164.
To “GGUCACGUCUCAAUCAACUCUUUCCCAGGAGUUUACUCCUGCAUUUUCAACAGCUCGCAGUCAAG” belongs 0.138; to “GGUCACGUCUCAAUCAACUCUAUUCCCAGGGAAACCCCUGGUUUAUUCAACAGCUCGCAGUCAAG”, 0.182; to “GGUCACGUCUCAAUCAACUCUAUCCCAGGAGUUUACUCCUGUUAAUUCAACAGCUCGCAGUCAAG”, 0.0459.
To “GGUCACGUCUCAAUCAACUCAUUUUCCAGGGAAACCCCUGGCUUACUCAACAGCUCGCAGUCAAG” belongs 0.234; to “GGUCACGUCUCAAUCAACUCCCUCGAGGGGGGGAAAACCCCUUUACCCUCACUUUCAACAGCUCGCAGUCAAG”, 0.101; to “GGUCACGUCUCAAUCAACUCUACUUCCAGGGAAAGCCCUGGCUUUCUCAACAGCUCGCAGUCAAG”, 0.134.
“GGUCACGUCUCAAUCAACUCAUAAGAGGGGGGGAAAACCCCUUUACCCUCAUUCUCAACAGCUCGCAGUCAAG”: the binding signal (log2 fold change) is -0.0262.
Take “GGUCACGUCUCAAUCAACUCAUCCUCCAGGGAAAUCCCUGGCAUACUCAACAGCUCGCAGUCAAG”: the binding signal (log2 fold change) is -0.114.
As for “GGUCACGUCUCAAUCAACUCAUUUGCAGGAGUUUCCUCCUGGUAUUUCAACAGCUCGCAGUCAAG”, the figure is -0.0338; as for “GGUCACGUCUCAAUCAACUCAGAAGAGGGGGGGAAAACCCCUUUACCCUCCAAAUCAACAGCUCGCAGUCAAG”, 0.431; as for “GGUCACGUCUCAAUCAACUCAACUCCCAGGGAAACCCCUGGCUAUUUCAACAGCUCGCAGUCAAG”, -0.244.
Regarding “GGUCACGUCUCAAUCAACUCCAUAGAGGGGGGGAAAACCCCUUUACCCUCCAAAUCAACAGCUCGCAGUCAAG”, the binding signal (log2 fold change) is -0.662.
Turning to “GGUCACGUCUCAAUCAACUCUUCCUCAGGAGUUUUCUCCUGUAUUUUCAACAGCUCGCAGUCAAG”, the binding signal (log2 fold change) turned out to be 0.124.
To “GGUCACGUCUCAAUCAACUCAUUCUCAGGAGUUUCCUCCUGCUAUCUCAACAGCUCGCAGUCAAG” belongs 0.0249.
To “GGUCACGUCUCAAUCAACUCAACUCCCAGGGAAACCCCUGGUUUUCUCAACAGCUCGCAGUCAAG” belongs -0.0139; to “GGUCACGUCUCAAUCAACUCAUUCCCCAGGGAAAUCCCUGGCAUUCUCAACAGCUCGCAGUCAAG”, 0.11; to “GGUCACGUCUCAAUCAACUCUAUUCCCAGGGAAAGCCCUGGUUUUUUCAACAGCUCGCAGUCAAG”, -0.301.
As for “GGUCACGUCUCAAUCAACUCUCUCGAGGGGGGGAAAACCCCUUUACCCUCUCAAUCAACAGCUCGCAGUCAAG”, the figure is -0.078; as for “GGUCACGUCUCAAUCAACUCAUGUCCAGGAGUUUACUCCUGCAAAUUCAACAGCUCGCAGUCAAG”, -0.228.
For the sequence “GGUCACGUCUCAAUCAACUCAUCCUCCAGGGAAAACCCUGGUAUACUCAACAGCUCGCAGUCAAG”, the binding signal (log2 fold change) is -0.172.
With “GGUCACGUCUCAAUCAACUCUACUUCAGGAGUUUUCUCCUGCUAUCUCAACAGCUCGCAGUCAAG”, the binding signal (log2 fold change) was found to be 0.155.
As for “GGUCACGUCUCAAUCAACUCUUCCCCAGGAGUUUUCUCCUGUAAAUUCAACAGCUCGCAGUCAAG”, the figure is -0.00206; as for “GGUCACGUCUCAAUCAACUCUAUUUCCAGGGAAAUCCCUGGUUAACUCAACAGCUCGCAGUCAAG”, -0.184.
To “GGUCACGUCUCAAUCAACUCAUUUUCCAGGGAAAUCCCUGGCUAAUUCAACAGCUCGCAGUCAAG” belongs -0.0278.
To “GGUCACGUCUCAAUCAACUCAUUUCCCAGGGAAAUCCCUGGUUAUCUCAACAGCUCGCAGUCAAG” belongs -0.175; to “GGUCACGUCUCAAUCAACUCAGGUCCAGGAGUUUACUCCUGCAAAUUCAACAGCUCGCAGUCAAG”, 0.356.
Turning to “GGUCACGUCUCAAUCAACUCUUUUCCCAGGGAAAACCCUGGCUAUUUCAACAGCUCGCAGUCAAG”, the binding signal (log2 fold change) was -0.126.
As for “GGUCACGUCUCAAUCAACUCAAACGAGGGGGGGAAAACCCCUUUACCCUCUCCAUCAACAGCUCGCAGUCAAG”, the figure is 0.0119; as for “GGUCACGUCUCAAUCAACUCAUUAGAGGGGGGGAAAACCCCUUUGCCCUCCAACUCAACAGCUCGCAGUCAAG”, 0.222.
On to “GGUCACGUCUCAAUCAACUCUCCCGAGGGGGGGAAAACCCCUUUACCCUCACCUUCAACAGCUCGCAGUCAAG”, for which the binding signal (log2 fold change) was -0.0133.
As for “GGUCACGUCUCAAUCAACUCGUUUUCAGGAGUUUCCUCCUGCUAUUUCAACAGCUCGCAGUCAAG”, the figure is -0.0573; as for “GGUCACGUCUCAAUCAACUCCCUAGAGGGGGGGAAAACCCCUUUACCCUCCCAAUCAACAGCUCGCAGUCAAG”, 0.166; as for “GGUCACGUCUCAAUCAACUCAUCCCCCAGGGAAACCCCUGGUUAACUCAACAGCUCGCAGUCAAG”, -0.0616.
